31 molecules from article PMC9911399, “Two distinct binding modes provide the RNA-binding protein RbFox with extraordinary sequence specificity” can be followed below.

Substitutions are numbered along the chain they refer to; changes in the protein carry UniProt numbers. The list shows a part of the results.

First the molecules themselves.
T1: RBFOX1 RRM RbFoxmut (Fox-RRM*) (Homo sapiens, UniProt Q9NWB1 109-208, R118D;E147R;N151S;E152T)
T1 sequence: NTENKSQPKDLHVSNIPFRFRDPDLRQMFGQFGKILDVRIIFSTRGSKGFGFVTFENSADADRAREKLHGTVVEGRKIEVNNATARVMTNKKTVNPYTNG

B1: ACCUGCC (DNA:RNA)
RNA: GGGAGACCGGAAUUCAGAUUGUCCACCUGCCUUAAAUCCCGUCGUAGCCACCA
DNA 1: CAATCTGAATTCCGGTCTCCC
DNA 2: TGGTGGCTACGACGGGATT
B2: CAAUACG (DNA:RNA)
RNA: B1 RNA with A25C, C26A, C27A, G29A, C31G
DNA 1: CAATCTGAATTCCGGTCTCCC
DNA 2: TGGTGGCTACGACGGGATT
B3: AGCGCUC (DNA:RNA)
RNA: B1 RNA with C26G, U28G, G29C, C30U
DNA 1: CAATCTGAATTCCGGTCTCCC
DNA 2: TGGTGGCTACGACGGGATT
B4: UUCCACU (DNA:RNA)
RNA: B1 RNA with A25U, C26U, U28C, G29A, C31U
DNA 1: CAATCTGAATTCCGGTCTCCC
DNA 2: TGGTGGCTACGACGGGATT
B5: CUAAAGA (DNA:RNA)
RNA: GGGAGACCGGAAUUCAGAUUGUCCCUAAAGAUUAAAUCCCGUCGUAGCCACCA
DNA 1: CAATCTGAATTCCGGTCTCCC
DNA 2: TGGTGGCTACGACGGGATT
B6: GCUUCCA (DNA:RNA)
RNA: B1 RNA with A25G, C27U, G29C, C31A
DNA 1: CAATCTGAATTCCGGTCTCCC
DNA 2: TGGTGGCTACGACGGGATT
B7: AGUUGCG (DNA:RNA)
RNA: B1 RNA with C26G, C27U, C31G
DNA 1: CAATCTGAATTCCGGTCTCCC
DNA 2: TGGTGGCTACGACGGGATT
B8: UCGGGGG (DNA:RNA)
RNA: B1 RNA with A25U, C27G, U28G, C30G, C31G
DNA 1: CAATCTGAATTCCGGTCTCCC
DNA 2: TGGTGGCTACGACGGGATT
B9: AACUCUU (DNA:RNA)
RNA: B1 RNA with C26A, G29C, C30U, C31U
DNA 1: CAATCTGAATTCCGGTCTCCC
DNA 2: TGGTGGCTACGACGGGATT
B10: CCCGAUA (DNA:RNA)
RNA: B5 RNA with U26C, A27C, A28G, G30U
DNA 1: CAATCTGAATTCCGGTCTCCC
DNA 2: TGGTGGCTACGACGGGATT
B11: UGAUUGC (DNA:RNA)
RNA: B1 RNA with A25U, C26G, C27A, G29U, C30G
DNA 1: CAATCTGAATTCCGGTCTCCC
DNA 2: TGGTGGCTACGACGGGATT
B12: CCCGACG (DNA:RNA)
RNA: B1 RNA with A25C, U28G, G29A, C31G
DNA 1: CAATCTGAATTCCGGTCTCCC
DNA 2: TGGTGGCTACGACGGGATT
B13: UGACAUC (DNA:RNA)
RNA: B5 RNA with C25U, U26G, A28C, G30U, A31C
DNA 1: CAATCTGAATTCCGGTCTCCC
DNA 2: TGGTGGCTACGACGGGATT
B14: GGUUCAC (DNA:RNA)
RNA: B1 RNA with A25G, C26G, C27U, G29C, C30A
DNA 1: CAATCTGAATTCCGGTCTCCC
DNA 2: TGGTGGCTACGACGGGATT
B15: GAGACUG (DNA:RNA)
RNA: B5 RNA with C25G, U26A, A27G, A29C, G30U, A31G
DNA 1: CAATCTGAATTCCGGTCTCCC
DNA 2: TGGTGGCTACGACGGGATT
B16: CGUUACU (DNA:RNA)
RNA: B1 RNA with A25C, C26G, C27U, G29A, C31U
DNA 1: CAATCTGAATTCCGGTCTCCC
DNA 2: TGGTGGCTACGACGGGATT
B17: ACCCUCC (DNA:RNA)
RNA: B1 RNA with U28C, G29U
DNA 1: CAATCTGAATTCCGGTCTCCC
DNA 2: TGGTGGCTACGACGGGATT
B18: AGACUAC (DNA:RNA)
RNA: B1 RNA with C26G, C27A, U28C, G29U, C30A
DNA 1: CAATCTGAATTCCGGTCTCCC
DNA 2: TGGTGGCTACGACGGGATT
B19: AAAAAUA (DNA:RNA)
RNA: B5 RNA with C25A, U26A, G30U
DNA 1: CAATCTGAATTCCGGTCTCCC
DNA 2: TGGTGGCTACGACGGGATT
B20: GUCAUAU (DNA:RNA)
RNA: B5 RNA with C25G, A27C, A29U, G30A, A31U
DNA 1: CAATCTGAATTCCGGTCTCCC
DNA 2: TGGTGGCTACGACGGGATT
B21: CCCAGUG (DNA:RNA)
RNA: B1 RNA with A25C, U28A, C30U, C31G
DNA 1: CAATCTGAATTCCGGTCTCCC
DNA 2: TGGTGGCTACGACGGGATT
B22: CUGAGUC (DNA:RNA)
RNA: B5 RNA with A27G, A29G, G30U, A31C
DNA 1: CAATCTGAATTCCGGTCTCCC
DNA 2: TGGTGGCTACGACGGGATT
B23: CGCCGAC (DNA:RNA)
RNA: B1 RNA with A25C, C26G, U28C, C30A
DNA 1: CAATCTGAATTCCGGTCTCCC
DNA 2: TGGTGGCTACGACGGGATT
B24: AAGCGAC (DNA:RNA)
RNA: B1 RNA with C26A, C27G, U28C, C30A
DNA 1: CAATCTGAATTCCGGTCTCCC
DNA 2: TGGTGGCTACGACGGGATT
B25: UUUAGUC (DNA:RNA)
RNA: B1 RNA with A25U, C26U, C27U, U28A, C30U
DNA 1: CAATCTGAATTCCGGTCTCCC
DNA 2: TGGTGGCTACGACGGGATT
B26: CGAAGAG (DNA:RNA)
RNA: B5 RNA with U26G, A29G, G30A, A31G
DNA 1: CAATCTGAATTCCGGTCTCCC
DNA 2: TGGTGGCTACGACGGGATT
B27: CUGUGGU (DNA:RNA)
RNA: B5 RNA with A27G, A28U, A29G, A31U
DNA 1: CAATCTGAATTCCGGTCTCCC
DNA 2: TGGTGGCTACGACGGGATT
B28: CACGCCG (DNA:RNA)
RNA: B1 RNA with A25C, C26A, U28G, G29C, C31G
DNA 1: CAATCTGAATTCCGGTCTCCC
DNA 2: TGGTGGCTACGACGGGATT
B29: UCUGUCG (DNA:RNA)
RNA: B1 RNA with A25U, C27U, U28G, G29U, C31G
DNA 1: CAATCTGAATTCCGGTCTCCC
DNA 2: TGGTGGCTACGACGGGATT
B30: GCUGUAC (DNA:RNA)
RNA: B1 RNA with A25G, C27U, U28G, G29U, C30A
DNA 1: CAATCTGAATTCCGGTCTCCC
DNA 2: TGGTGGCTACGACGGGATT
B31: CCCCGCG (DNA:RNA)
RNA: B1 RNA with A25C, U28C, C31G
DNA 1: CAATCTGAATTCCGGTCTCCC
DNA 2: TGGTGGCTACGACGGGATT

This experiment deals with T1, RBFOX1 RRM RbFoxmut (Fox-RRM*). The experiment can be described thus: EMSA; HiTS-Eq, 1 nM pool, 10 min; buffer printed only for the single-RNA assays: 10 mM Tris pH 7.5, 150 mM NaCl, 3.4 mM EDTA, 0.001% NP-40, 30 C. The note with it: tags: His6 N-terminal (pET28a); label: 5' 32P. A digest of the protocol:
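Purified wild-type or mutant RbFox RRM at increasing concentrations was equilibrated with 1 nM of 5′-radiolabelled RNA carrying 7 randomized nucleotides for 10 min in 50 µL. Unbound RNA was separated by 8% native PAGE and sequenced. Relative association constants came from read-count changes of each RNA species compared with the control reaction, normalised to the cognate motif.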
(In EMSA bound probe runs differently from free probe, usually more slowly.)
In the case of B1, the binding signal is 0.196 KA relative to UGCAUGU.

As for B2, the binding signal was 0.0751 KA relative to UGCAUGU. As for B3, the figure is 0.0471 KA relative to UGCAUGU. Turning to B4, the binding signal was 0.0766 KA relative to UGCAUGU.

Regarding B5, the binding signal is 0.0917 KA relative to UGCAUGU. For the molecule B6, the binding signal is 0.0831 KA relative to UGCAUGU.

For the molecule B7, the binding signal is 0.141 KA relative to UGCAUGU. With B8, the binding signal was 0.087 KA relative to UGCAUGU.

Turning to B9, the binding signal was 0.075 KA relative to UGCAUGU. B10: the binding signal was 0.0935 KA relative to UGCAUGU.

For B11, the binding signal was 0.189 KA relative to UGCAUGU.

B12: the binding signal is 0.107 KA relative to UGCAUGU. Turning to B13, the binding signal was 0.147 KA relative to UGCAUGU. In the case of B14, the binding signal was 0.0895 KA relative to UGCAUGU. For B15, the binding signal is 0.181 KA relative to UGCAUGU.

For B16, the binding signal was 0.0985 KA relative to UGCAUGU. Turning to B17, the binding signal was 0.0466 KA relative to UGCAUGU. Regarding B18, the binding signal is 0.0497 KA relative to UGCAUGU.

With B19, the binding signal was 0.124 KA relative to UGCAUGU. For the molecule B20, the binding signal was 0.132 KA relative to UGCAUGU. With B21 the figure was 0.142 KA relative to UGCAUGU. As to B22, the binding signal was 0.153 KA relative to UGCAUGU. For the molecule B23, the binding signal was 0.0818 KA relative to UGCAUGU. Consider B24, for which the binding signal was 0.0788 KA relative to UGCAUGU. For the molecule B25, the binding signal is 0.0953 KA relative to UGCAUGU. With B26, the binding signal was 0.124 KA relative to UGCAUGU. For B27, the binding signal was 0.154 KA relative to UGCAUGU.

For B28, the binding signal is 0.117 KA relative to UGCAUGU. In the case of B29, the binding signal was 0.137 KA relative to UGCAUGU. As for B30, the figure is 0.102 KA relative to UGCAUGU; as for B31, 0.125 KA relative to UGCAUGU.
